Experimental data published in PubChem BioAssay AID1508623 (National Center for Advancing Translational Sciences (NCATS), 2021).
The campaign covered roughly 48,000 compounds. About 450 (0.94%) were called active. Not shown: some 19% with an inconclusive outcome. Calls come from the whole dose curve; as a rule, active = well fitted inhibition curve with a large enough effect; inconclusive = small, poorly fitted or top-dose-only effect; inactive = no such curve, though single readings can be large or run the other way. Some of the results follow.

Experiment: Primary qHTS for Identification of Small Molecule Inhibitors of Huntingtin Promoter Activity; note: nearly all actives have a fitted effect of over 50% in size
Settings: HEK293 HTT promoter firefly luciferase reporter (activity 0% = vehicle and -100% = no light), 24 h; series mostly up to 57.5 µM; activity change, negative = inhibition: at the top concentration
Procedure, shortened: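 Luminescence was read after Dual-Glo reagent and a 10 min room-temperature incubation. Values were normalized to vehicle (0% activity) and zero RLU (-100% activity). Reporter HEK293 cells had been exposed to compounds (up to 57.5 uM final) for 24 h.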
Potency is the fitted concentration of half-maximal effect.

Activity change, negative = inhibition, inactive:
O=c1c2sc3ccccc3c2n(Cc2ccccc2F)c(=O)n1Cc1ccccc1 -8.45%
CCC(CC)C(=O)Nc1cc(-c2cccc(C)c2)nn1-c1ccccc1 -32.3%
COc1ccc(Cl)cc1NC(=O)c1cc(C)nc2c1c(C)nn2-c1ccccc1 0.31%
Cc1ccc(Cn2c(=O)n(Cc3ccco3)c(=O)c3sc4ccccc4c32)cc1 -13.4%
O=c1c2cnn(-c3ccc(Cl)cc3)c2ncn1Cc1ccc(Cl)cc1Cl -1.86%
Cc1nc2c(C(=O)NCc3ccccc3)cnn2c(C)c1Cc1ccc(F)cc1 -3.06%
Cc1cccc(C(=O)Nc2cc3c(cc2N2CCCCC2)n(C)c(=O)c(=O)n3C)c1 -0.141%
CC(=O)N1CCC2(CC1)OC(=O)C(C)=C2C(=O)Nc1cccc(Cl)c1C -6.15%
CCCCC(=O)Nc1cc(C)c(O)c(-c2nc3ncccc3o2)c1 -5.66%
O=C(CC1N=C2c3ccccc3N=C(SCc3ccccc3F)N2C1=O)NCCc1ccccc1 (stereo unspecified) -26.7%
CCOc1ccc(C(=O)Nc2cc(NC(=O)c3ccco3)ccc2OC)cc1Br -13.9%
Cc1ccc(CCNC(=O)CCN2N=C(c3ccc(C)cc3)CCC2=O)cc1 -21.2%
COc1ccc(CCC(=O)NCc2ccc3c(c2)CCN3C(=O)c2ccc(F)cc2)cc1 -6.86%
Cc1ccc(Cl)cc1Nc1nc2ccccc2c2nncn12 -9.51%
Cc1cccc(C)c1NC(=O)c1ccc2c(c1)N(Cc1cccc(Cl)c1)C(=O)c1ccccc1S2=O (stereo unspecified) -19.1%
CC(C)CC(=O)Nc1nnc(S(=O)(=O)N2CCCCCC2)s1 0.379%
CCOc1cc(CC(=O)N[C@@H](CC(C)C)c2ccccc2N2CCCCC2)ccc1C(=O)O -3.54%
Cc1ccc(C(=O)N(Cc2sccc2C)C2CCS(=O)(=O)C2)cc1 (stereo unspecified) -15.3%
COc1ccc(OC)c(-n2nnc3c(sc4nc(C)c(Br)c(C)c43)c2=O)c1 -16%
O=C(NCC(c1cccs1)S(=O)(=O)c1cccs1)c1ccccc1 (stereo unspecified) -23.9%
CC(NC(=O)Cn1ncc2c3ccccc3n(Cc3ccc(F)cc3)c2c1=O)c1ccccc1 (stereo unspecified) -10.2%
Cc1cc(Br)ccc1NC(=O)CCS(=O)(=O)c1cccc2nonc12 -14.4%
CC(=O)c1sc2c(c1C)c(=O)n(-c1ccc(Cl)cc1)c(=O)n2Cc1ccc(Cl)cc1 -28.4%
Cc1cc(C)c(Cn2c(C)c(CNCCCc3ccccc3)c(C(=O)O)c2C)c(C)c1 -20.2%
CCOC(=O)c1c(NC(=O)c2noc3c2CC(C(C)(C)C)CC3)sc2c1CCCC2 (stereo unspecified) -0.842%
Cc1ccc(C)c(N2CCN(C(=O)CN3C(=O)COc4ccc(S(=O)(=O)N5CCCCCC5)cc43)CC2)c1 -13%
COc1ccc(-c2cc(C(=O)Nc3c(C(=O)c4ccc(Cl)cc4)oc4ccccc34)no2)cc1 -4.85%
CCOC(=O)c1cc2c(=O)n3ccccc3nc2n(CC2CCCO2)c1=NC(=O)c1cccc(C(F)(F)F)c1 (stereo unspecified) -20.3%
CC(=O)N1CCC(N(Cc2ccco2)C(=O)Nc2cccc(C)c2)CC1 -1.88%
CCOC(=O)N1CCN(S(=O)(=O)N2CCCC(C(=O)NCc3cccc(OC)c3)C2)CC1 (stereo unspecified) -27.2%
CC1=C(C(=O)Nc2cc3cn[nH]c3cc2F)C(c2ccc(C(F)(F)F)cc2)CC(=O)N1 (stereo unspecified) -3.59%
CCC1CN(C(=O)N2CCC(C(=O)NCc3ccc(C)o3)CC2)c2cc(C)ccc2O1 (stereo unspecified) -14.5%
Cc1nc2c(C(=O)NCc3ccccc3Cl)cnn2c(C)c1Cc1c(F)cccc1Cl -13.7%
CC(=O)N1CCCc2cc(S(=O)(=O)N3CCC(C(=O)NCCC(C)C)CC3)ccc21 -13.9%
O=C(NC1CC(=O)N(c2ccc(F)cc2)C1)c1cc2ccccc2o1 (stereo unspecified) 9.36%
CN1CCN(C(c2ccccc2)c2sc3nc(-c4ccco4)nn3c2O)CC1 (stereo unspecified) -0.464%
COc1ccccc1NC(=O)n1ncc2c(C)cccc21 10.3%
O=NN(CCCl)C(=O)NCCCl
CCOC(=O)c1ncn2c1CN(C)C(=O)c1cc(F)ccc1-2
CC1CCc2nc(NC(=O)COc3ccc(C(C)(C)C)cc3)sc2C1 (stereo unspecified) -14.4% [at 11.5 µM]
Cc1cccc(CCn2c(=O)c3ccccc3n(Cc3cccc(F)c3)c2=O)c1 8.72%
COc1ccc(OC)c(C2CC(=O)c3c([nH]c(C(=O)OCC4CCCCC4)c3C)C2)c1 (stereo unspecified) -25.1%
CC(=O)c1cccc(NC(=O)CCS(=O)(=O)c2cc(Br)cc3c2N(C(=O)C2CC2)CC3)c1 -6.72%
CCCC(=O)N1CC(=O)Nc2ccc(Cl)cc2C1c1ccc(F)cc1 (stereo unspecified) -19.7%
Cc1csc2nc(COC(=O)COc3ccccc3F)cc(=O)n12 -22.5%
CCS(=O)(=O)c1ncc(N(Cc2ccco2)Cc2sccc2C)c(C(=O)Nc2cc(C)ccc2C)n1 -28.3%
Cn1c(C(=O)NCc2ccc(F)cc2)cc2c(=O)n(C)c3ccccc3c21 1.36%
CCCn1c(=O)c2sccc2n2c(CCCC(=O)N3CCN(c4ccccc4)CC3)nnc12 -7.38%
COc1ccc(CCNC(=O)Cn2nnc(-c3ccc(C(F)(F)F)cc3)n2)cc1OC -18.1%
COCCn1c(SCC(=O)Nc2ccc(F)c(Cl)c2)nc2c(oc3ccccc32)c1=O 3.79%
Cc1ccccc1NS(=O)(=O)c1ccc2[nH]cc(C(=O)N3CCCC3)c(=O)c2c1 -3.41%
Cc1nc2ccn(Cc3cccnc3)c(=O)c2cc1C(=O)Nc1ccc(OC(F)(F)F)cc1 -18.9%
C[C@@H](N)C1CCC(C(=O)Nc2ccncc2)CC1 (stereo partly specified) -9.89%
Cc1sc2ncn(CC(=O)Nc3cccc(C(F)(F)F)c3)c(=O)c2c1S(=O)(=O)N1CCC(C)CC1 -17.4%
CCOC(=O)C1=C(CN2CCN(c3ccccc3)CC2)NC(=O)NC1c1ccc(C)cc1 (stereo unspecified) -30%
O=C(Nc1ccccc1C(=O)OCc1cc(=O)n2nc(C3CC3)sc2n1)c1cccc(Cl)c1 -7.35%
Cc1ccc(Cl)cc1NC(=O)Cn1c(=O)c(CNc2ccccc2)cc2cc3c(cc21)OCCO3 -15.7%
COc1ccc(C(=O)Nc2cc(C(F)(F)F)ccc2N2CCN(c3ccccc3)CC2)cc1OC -0.871%
COc1ccc(-c2c(C)nn3c4c(cnc23)C(=O)CC(c2ccc(C)cc2)C4)cc1 (stereo unspecified) -11.5%
CCC(=O)Nc1nnc(S(=O)(=O)N(C)Cc2ccccc2)s1 1.17%

Potency, active:
Cc1nc(C)c(-c2ccc(SCC(=O)Nc3ccc(Cl)c(Cl)c3)nn2)s1 17.8 µM
